SMILES strings stand for the structures. About 2,200 (0.71%) of roughly 310,000 compounds showed an effect of 50% or more. The effect is printed as a negative number. The list shows a part of the results.

The assay deals with human ether-à-go-go-related gene (hERG) potassium channel (human, UniProt Q12809). Briefly: primary screen, population patch clamp on CHO cells stably expressing hERG.
Chain of human ether-à-go-go-related gene (hERG) potassium channel (Q12809 whole entry, looked up): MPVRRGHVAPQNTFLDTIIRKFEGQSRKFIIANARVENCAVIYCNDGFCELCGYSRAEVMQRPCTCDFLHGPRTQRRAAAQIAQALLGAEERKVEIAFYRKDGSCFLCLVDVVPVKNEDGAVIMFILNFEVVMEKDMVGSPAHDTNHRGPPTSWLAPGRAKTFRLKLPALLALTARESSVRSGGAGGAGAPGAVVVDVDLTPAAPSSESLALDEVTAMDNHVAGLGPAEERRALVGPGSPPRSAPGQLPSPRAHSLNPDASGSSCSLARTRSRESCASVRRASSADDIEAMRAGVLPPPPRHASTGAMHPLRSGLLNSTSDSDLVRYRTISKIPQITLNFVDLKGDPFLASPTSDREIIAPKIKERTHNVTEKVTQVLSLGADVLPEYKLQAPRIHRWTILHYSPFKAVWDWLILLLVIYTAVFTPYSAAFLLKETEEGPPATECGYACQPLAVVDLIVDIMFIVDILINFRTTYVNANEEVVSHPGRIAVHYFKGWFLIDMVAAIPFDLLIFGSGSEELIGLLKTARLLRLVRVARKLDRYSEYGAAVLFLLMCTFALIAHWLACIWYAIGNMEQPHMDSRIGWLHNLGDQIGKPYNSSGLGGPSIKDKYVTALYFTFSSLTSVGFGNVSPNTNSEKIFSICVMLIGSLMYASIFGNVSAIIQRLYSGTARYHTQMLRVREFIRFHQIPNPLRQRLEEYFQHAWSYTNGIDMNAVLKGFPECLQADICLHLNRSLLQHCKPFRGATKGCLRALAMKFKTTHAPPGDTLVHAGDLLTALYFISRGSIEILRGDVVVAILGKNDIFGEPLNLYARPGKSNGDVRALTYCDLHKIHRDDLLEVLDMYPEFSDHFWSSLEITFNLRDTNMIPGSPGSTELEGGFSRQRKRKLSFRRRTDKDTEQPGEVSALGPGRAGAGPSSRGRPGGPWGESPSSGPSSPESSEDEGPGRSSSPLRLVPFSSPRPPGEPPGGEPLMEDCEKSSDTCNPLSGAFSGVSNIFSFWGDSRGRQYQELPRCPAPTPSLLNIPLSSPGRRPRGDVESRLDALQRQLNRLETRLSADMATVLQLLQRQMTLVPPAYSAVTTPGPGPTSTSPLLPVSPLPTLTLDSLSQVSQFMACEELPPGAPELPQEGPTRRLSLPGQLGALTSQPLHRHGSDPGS
With `COc1ccc(CN(C(=O)c2ccc(CN3CCOCC3)o2)C(C(=O)NCC2CCCO2)c2ccc(F)cc2)cc1` (stereo not drawn), the “hERG current change (%, negative = inhibition) at 1uM” value is listed as 4.47%. With `Cc1ccc2nc(N(CCCN(C)C)C(=O)c3ccc(S(=O)(=O)N4CCOCC4)cc3)sc2c1.Cl` the figure was -13%. The same measure for `NNC(=O)[C@@H]1C[C@@H]1c1ccccc1`: 2.06%; for `COC(=O)c1ccc(C(=O)NC2CCCc3c2cnn3-c2ccccc2F)nc1` (stereo not drawn): 9.02%; for `O=C(c1cc(COc2ccc(F)cc2Cl)on1)N1CCCC(OCc2cccnc2)C1` (stereo not drawn): -4.37%. With `CN(C(=O)c1cccs1)c1ccc(OCC(=O)N2CCC(C(N)=O)CC2)cc1` the figure was 25.6%; with `C[C@H](NC(N)=O)C(=O)Nc1ccc(OCc2ccccc2)cc1`, 10.7%; with `COc1cc(NC(=O)C2=CC(c3ccco3)=NS(=O)(=O)N2C)cc(OC)c1OC`, 11.7%. On to `C#CCNC(=O)C1CCN(c2cc(C)nc(-c3ccccc3)n2)CC1`, for which the “hERG current change (%, negative = inhibition) at 1uM” value is listed as -8.78%. The same measure for `CCOC(=O)CSc1cc(=O)n(C)c2cc(Cl)ccc12`: 14.1%; for `CCOC(=O)C1CCN(S(=O)(=O)c2cc3c4c(c2)C(C)C(=O)N4CCC3)CC1` (stereo not drawn): 10.3%; for `O=C(COc1ccccc1F)N1CCCc2ccccc21`: 16.2%. For `Cc1ccc(-c2nn(CC(=O)NCC3CCCO3)c(=O)c3ccccc23)cc1` (stereo not drawn), the “hERG current change (%, negative = inhibition) at 1uM” value is on record as -7.7%. `C/C(=N\Nc1cc(N2CCOCC2)ncn1)c1cccc([N+](=O)[O-])c1`: the “hERG current change (%, negative = inhibition) at 1uM” value was determined as 10.3%. Regarding `CCOC(=O)CC1=NN(c2ccccc2)C(=O)C1`, the “hERG current change (%, negative = inhibition) at 1uM” value is 16.1%.

With `CC(C)OC(=O)c1cccc(C(=O)Nc2cccc(NC(=O)c3cccc(C(=O)OC(C)C)n3)n2)n1`, the “hERG current change (%, negative = inhibition) at 1uM” value came out at 17.4%. As for `Cc1noc(C)c1S(=O)(=O)N(CC(=O)Nc1ccc2c(c1)OCCO2)c1ccc(C(C)C)cc1`, the “hERG current change (%, negative = inhibition) at 1uM” value amounted to 6.67%.

In the case of `O=C(Cn1ccc(NC(=O)OCc2ccccc2)nc1=O)NCC1CCCO1` (stereo not drawn), the “hERG current change (%, negative = inhibition) at 1uM” value stood at 15.1%.

With `CCOC(=O)C1=C(C)N(CCCC(=O)O)C(=O)NC1c1cccs1` (stereo not drawn), the “hERG current change (%, negative = inhibition) at 1uM” value is reported as 21.3%.

With `CC(=O)Nc1ccccc1C(F)(F)F`, the “hERG current change (%, negative = inhibition) at 1uM” value is 18.8%.

Regarding `CC1=CC(c2ccc(Cl)cc2)n2nc(N3C(=O)CCC3=O)nc2N1.O=C(O)CCC(=O)O` (stereo not drawn), the “hERG current change (%, negative = inhibition) at 1uM” value is -1.91%. Turning to `C=CCN(CC=C)CCOc1ccccc1F.O=C(O)C(=O)O`, the “hERG current change (%, negative = inhibition) at 1uM” value came out at 3.05%. For the compound `CCc1ccc(C(=O)Nn2cnc3ccccc3c2=O)cc1`, the “hERG current change (%, negative = inhibition) at 1uM” value is recorded as 6.81%. As to `Cc1nn(C)c(Cl)c1S(=O)(=O)N1CCC(CO)(CCc2ccccc2)CC1`, the “hERG current change (%, negative = inhibition) at 1uM” value worked out at 3.36%. The same measure for `Cc1occc(=O)c1OC(=O)Nc1ccccc1`: 9.47%; for `CC(C)NS(=O)(=O)c1cc(C(=O)O)ccc1Cl`: 0.113%. Consider `CCc1cc(=O)oc2c3c(cc(OCC(=O)NCCCn4ccnc4)c12)OC(C)(C)CC3`, for which the “hERG current change (%, negative = inhibition) at 1uM” value was -21.9%. The same measure for `Cc1ccc(NC(=O)Cn2cc(C(=O)C3CC3)c3ccccc32)c(C)c1`: 15.5%; for `O=C(NCCC1CCCCN1S(=O)(=O)c1cccs1)C(=O)Nc1cccc(F)c1` (stereo not drawn): 1.64%.

For the compound `CCC(=O)Nc1ccc(Cl)c(NC(=S)NC(=O)c2ccco2)c1`, the “hERG current change (%, negative = inhibition) at 1uM” value was 13.1%. For `COc1ccc(Cl)cc1NC(=O)CN1CCc2ccccc2C1`, the “hERG current change (%, negative = inhibition) at 1uM” value is given as 5.62%. The same measure for `O=C(CCc1nc2ccccc2c(=O)[nH]1)NNC(=O)c1ccc(F)cc1`: 10.2%; for `CCc1c(C)c(C#N)c2nc3ccccc3n2c1NCCOC`: 8.87%; for `CCC(=O)OCC(=O)Nc1cc([N+](=O)[O-])ccc1OC`: 1.52%. Take `COc1cccc(-c2nc(-c3ccc4c(c3)-c3ccccc3S4(=O)=O)c(-c3ccccc3)[nH]2)c1OC`: the “hERG current change (%, negative = inhibition) at 1uM” value stood at 3.83%. With `CCC1Oc2ccc(C)cc2N(CC(=O)NCCN2CCCCCC2)C1=O` (stereo not drawn) the figure was 8.55%. On to `CCn1c(SCC(=O)Nc2nccs2)nnc1-c1ccc(S(=O)(=O)N2CCCCC2)cc1`, for which the “hERG current change (%, negative = inhibition) at 1uM” value came out at 12%.

As to `O=C(NNC(=O)c1ccccc1O)c1cccc(Br)c1`, the “hERG current change (%, negative = inhibition) at 1uM” value came to 16%. With `CC1(C)CN(c2cccc(Br)c2)C1=O` the figure was 12.1%; with `CCc1[nH]nc(C(=O)NC2CCCc3c2cnn3-c2cc(C)cc(C)c2)c1C` (stereo not drawn), -4.06%.

For `CC1CCc2c(nc3ncnn3c2NCCN(C)C)C1.Cl` (stereo not drawn), the “hERG current change (%, negative = inhibition) at 1uM” value turned out to be 8.51%. With `O=C(O)c1cc(N/N=C/C=C/c2ccccc2)ccc1Cl` the figure was 20.3%. With `COc1ccc(OS(=O)(=O)c2ccc(N3C(=O)CCC3=O)cc2)cc1` the figure was 20.7%; with `COC(=O)c1ccccc1NC(=O)CN1CCN(c2ccccn2)CC1`, 14%; with `COc1cc(C(=O)Nc2nc(-c3ccc(F)cc3)cs2)ccc1OCC(=O)N1CCOCC1`, 1.36%. The same measure for `CCCOC(=O)C1=C(C)NC(=O)NC1c1cccc2ccccc12` (stereo not drawn): 3.77%. Consider `CCN(CC)c1ccc(C(=O)N/N=C(\C)c2cccc(OC)c2)cc1`, for which the “hERG current change (%, negative = inhibition) at 1uM” value is 11.8%. With `CN(c1ccccc1)c1nc(N)c([N+](=O)[O-])c(Nc2ccc(F)cc2)n1` the figure was 15%; with `S=C(Nc1cccc(Cl)c1Cl)NC1CCN(Cc2ccccc2)CC1`, 21.9%. With `COC(=O)CC1(CC(=O)OC)C(=O)N(c2ccccc2)C(=O)N(c2ccccc2)C1=O` the figure was 9.98%. Consider `CCCCc1c(C)c(C#N)c2nc3ccccc3n2c1Nc1c(C)n(C)n(-c2ccccc2)c1=O`, for which the “hERG current change (%, negative = inhibition) at 1uM” value was 3.89%. On to `O=C(NCCCc1ccccc1)C1CCC(=O)N(Cc2ccc(Cl)cc2)C1` (stereo not drawn), for which the “hERG current change (%, negative = inhibition) at 1uM” value was -6.98%. With `COc1nccnc1NS(=O)(=O)c1ccc(N=Cc2c(C)[nH]n(-c3ccc(C)c(C)c3)c2=O)cc1` the figure was 3.39%; with `O=C(NC(Cc1c[nH]c2ccccc12)C(=O)O)c1ccccc1` (stereo not drawn), -0.787%. In the case of `COc1ccc(NC(=O)c2cc(=O)c3ccccc3o2)cn1`, the “hERG current change (%, negative = inhibition) at 1uM” value is -7.3%.

Consider `CCCN(c1ccc(OCC)cc1)c1ncnc2nc[nH]c12`, for which the “hERG current change (%, negative = inhibition) at 1uM” value is 2.12%. Turning to `C/C=C/c1ccc(OCCn2nnc3ccccc32)c(OC)c1`, the “hERG current change (%, negative = inhibition) at 1uM” value came to 8.32%. The same measure for `Oc1oc(C=Nc2ccc(F)cc2F)c2ccccc12`: 9.94%; for `CC1(C)NC(=O)N(CC(O)CN2CCOCC2)C1=O` (stereo not drawn): -0.0262%; for `COc1ccnc2c1c(=O)n(Cc1c(F)cccc1Cl)c(=O)n2C`: -14.5%. `OCC1CCCN(Cc2cn(Cc3ccccc3)nc2-c2cc3ccccc3o2)C1` (stereo not drawn): the “hERG current change (%, negative = inhibition) at 1uM” value was found to be 2.85%. As for `O=C1CN(C(=O)NCC(=O)N[C@H](C(=O)O)c2ccccc2)c2ccccc2N1`, the “hERG current change (%, negative = inhibition) at 1uM” value turned out to be 4.27%. On to `CCOC(=O)C1=C(C)NC(C)=C(C(=O)OCC)C1c1cc2ccc(C)cc2[nH]c1=O`, for which the “hERG current change (%, negative = inhibition) at 1uM” value is reported as 13.7%. With `O=C(COC(=O)CNC(=O)c1ccccc1)Nc1ccc(S(=O)(=O)N2CCCC2)cc1` the figure was 6.66%. Consider `Cc1ccc(S(=O)(=O)N2CCOCC2)cc1NC(=O)CSc1nc(N)cc(=O)[nH]1`, for which the “hERG current change (%, negative = inhibition) at 1uM” value is 8.89%. On to `C=CCN(CC=C)C(=O)c1c(OC)cccc1OC`, for which the “hERG current change (%, negative = inhibition) at 1uM” value came to 0.554%.

For `Clc1ccccc1C1CC(c2ccccc2)Nc2ncnn21` (stereo not drawn), the “hERG current change (%, negative = inhibition) at 1uM” value was found to be 2.51%. In the case of `C/C(=N\NC(=O)c1ccc(CSc2nncn2C)cc1)c1ccc(Cl)cc1`, the “hERG current change (%, negative = inhibition) at 1uM” value came out at 10.2%.

With `CCC(O)CNc1nc(SC)nc2sc3c(c12)CCN(C)C3` (stereo not drawn), the “hERG current change (%, negative = inhibition) at 1uM” value amounted to 8.27%. Consider `C/C(=N\NC(=O)c1c(Cl)c(C)nn1C)c1ccc(NC(=O)C2CCC2)cc1`, for which the “hERG current change (%, negative = inhibition) at 1uM” value was 7.97%. The same measure for `Cc1ccnc(N2CCC(C(=O)Nc3ccc(Oc4ccccc4)cc3)CC2)n1`: -0.266%; for `CN(CC(=O)Nc1ccccc1Cl)C(=O)Cn1cc(C(F)(F)F)cc(Cl)c1=O`: 9.42%; for `COc1ccc(Nc2ncc(C(=O)N3CCC(C(N)=O)CC3)c3ccccc23)cc1`: 11.5%. In the case of `CN1CCN(S(=O)(=O)c2ccc3[nH]cc(C(=O)O)c(=O)c3c2)CC1`, the “hERG current change (%, negative = inhibition) at 1uM” value is reported as -3.21%.

For `CCCCn1c(SCc2nnc(-c3ccccc3)o2)nc2c1c(=O)n(C)c(=O)n2C`, the “hERG current change (%, negative = inhibition) at 1uM” value is -8.35%. On to `O=C(O)c1ccccc1C(=O)Nc1ccccc1NC(=O)c1ccccc1C(=O)O`, for which the “hERG current change (%, negative = inhibition) at 1uM” value was 0.983%. With `CNC(=O)c1ccsc1NC(=O)CS(=O)(=O)c1ccccc1` the figure was 5.1%; with `CN(C)CCNCc1ccc(OC2CCCC2)cc1.Cl`, 0.362%. With `CN(C)c1ccc(/C=C/c2nc3ccccc3s2)cc1` the figure was 12.5%.

Turning to `Clc1cccc(NCc2nnc(SCc3ccc(Cl)cc3Cl)o2)c1`, the “hERG current change (%, negative = inhibition) at 1uM” value is given as -0.354%. Consider `CC(=O)Nc1ccc2nc(NC(=O)c3cccnc3)sc2c1`, for which the “hERG current change (%, negative = inhibition) at 1uM” value is given as -1.25%. With `O=C(O)c1ccc(/C=C2/SC(=S)N(Cc3ccccc3)C2=O)cc1` the figure was 11.5%; with `Clc1cc(Cl)c2nc(N3CCOCC3)sc2c1`, -0.122%; with `O=C(CN1C(=O)C(=O)N(C2CCCC2)C1=O)Nc1ccc(Cl)cc1C(F)(F)F`, 12%. The same measure for `Cc1csc(=S)n1-c1ccccc1`: 11.5%; for `Cc1ccccc1S(=O)(=O)Cc1ccc(C(=O)N2CCN(c3ccccc3F)CC2)o1`: 18.1%. With `CC1N=C(N)C(c2nc3ccccc3n2C)=C1O` (stereo not drawn) the figure was 8.06%.

Values taken from paper PMC4336329 (PLoS ONE, 2015).
